Data as given in the supplement of paper PMC7826260.
The list shows a part of the results. Cleavage of a single-stranded DNA pool by Rep nickase domains was read by sequencing for 1 h at 37 °C with 3 µM enzyme; only the middle of the 90-letter strands is printed. Numbers give uncut DNA relative to the enzyme-free pool, as log2; more negative means more cut, near 0 not cut, and no call is made. Shares of all reads are compared; values above 0 arise when much of the pool is cut.

Tested on: T1, Rep nickase domain of tomato golden mosaic virus
T1 sequence (residues 1-124 of Rep, tag left off): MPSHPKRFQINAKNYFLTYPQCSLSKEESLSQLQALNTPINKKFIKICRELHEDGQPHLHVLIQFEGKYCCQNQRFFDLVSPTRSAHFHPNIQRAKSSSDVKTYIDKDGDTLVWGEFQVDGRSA
Assay: uncleaved DNA left, log2 of reads against the no-enzyme library (log2 ratio); higher = less cleavage (more negative = more Rep cleavage of the k-mer); sequences stand for … in CTCGTCCG…ACCGGAGA
Experimental: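 A pool of 90-nt single-stranded DNAs with seven random bases just before the constant AC of the nick site (name = the seven bases) was cut by 3 µM recombinant His6-SUMO-tagged Rep nickase domain (300 nM DNA, 50 mM HEPES pH 8.0, 50 mM NaCl, 1 mM MnCl2, 1 h, 37 °C, three replicates). Uncut DNA was amplified and sequenced.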

| Sequence | uncleaved DNA left (log2) |
| --- | --- |
| CTTGGCG | 0.0211 |
| CATGGAC | 0.0437 |
| CGGCTAT | -0.0658 |
| AGGGTGA | 0.1 |
| GACAAAG | 0.0733 |
| CTGCAGT | -0.0122 |
| AGAGTCT | 0.00248 |
| AGCGCAA | -0.0173 |
| TACTCCT | -0.257 |
| GAGATCG | -0.0061 |
| TTGGGAG | 0.0821 |
| CCTGCTT | 0.0352 |
| CCAGGGA | 0.0525 |
| CTTCCAC | -0.0578 |
| TGCCTAA | -0.0384 |
| CAGTGCA | 0.0241 |
| CTGTTAC | -0.129 |
| GACGCAC | -0.0503 |
| GCTATAT | 0.136 |
| AGTACGG | 0.19 |

| Sequence | uncleaved DNA left (log2) |
| --- | --- |
| CACAGGT | -0.00283 |
| CCGATAA | -0.0231 |
| GCAGTTA | 0.0681 |
| AGAGCGA | -0.0126 |
| TGGATGC | 0.0217 |
| CAGCGGG | 0.195 |
| AGGGAAC | 0.173 |
| GCAGGAC | 0.152 |
| CCGTTCA | -0.141 |
| GGCCATG | 0.0909 |
| GTATTCC | 0.097 |
| GAGTACC | 0.0885 |
| TCACCTA | -0.162 |
| TAATTTG | -0.0581 |
| ACGATTA | 0.116 |
| TCCATTG | 0.0188 |
| GTCGTGG | 0.0179 |
| CTACTTA | -0.107 |
| CTGGTCA | -0.0639 |
| CTCAGCA | 0.0261 |
